The record followed here is the supplement of paper PMC7726561.

Over roughly 1,400 sequences, “thermal melting temperature (Tm) of peptide-HLA complex” has its median near 60; the lowest 2% begin near 45. This is one part of the list.
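Note: cell lysates heated 10 min at 37–73 °C, remaining pHLA pulled down with pan-class I antibody, peptides quantified by DIA-MS versus 37 °C, Tm where half the complex is lost.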

The assay addresses HLA-B*07:02. Kind of assay: thermal melting temperature (Tm) of peptide-HLA complex; higher = more thermostable pHLA complex. To be noted: C1R-B*07:02.
With SPRWGGIM, the thermal melting temperature was 61 °C.
Consider KPKTPSLTVF, for which the thermal melting temperature was found to be 61.7 °C.
Then TPADARIQIL, with 61.1 °C.
With RPNPGFSML, the thermal melting temperature was determined as 60.4 °C.
In turn, RPIRQILYL displayed a thermal melting temperature of 56.3 °C.
Then SPTSVRQMAL, with 58 °C.
APRGPGAEL displayed a thermal melting temperature of 61.5 °C.
In turn, KPIQRTIL gave a thermal melting temperature of 58.4 °C.
LPAPKWAEL had a thermal melting temperature of 59.8 °C.
In the case of RPFEDQTSL, the thermal melting temperature stood at 57.8 °C.
Then YPRLSIPNL, with 60.5 °C.
In turn, IPFSNPRVL returned a thermal melting temperature of 61.4 °C.
Then GAAVRIGSVL, with 59.4 °C; and LPSTRLGTL, with 61.1 °C; and SPIIRPLL, with 61.8 °C.
The sequence NVRPPNTAL yielded a thermal melting temperature of 56.8 °C.
For the sequence APRPYASSL, the thermal melting temperature came to 61 °C.
Sequence SPSLPNISL showed a thermal melting temperature of 64.4 °C.
On to TVRAVIATL, for which the thermal melting temperature came out at 60.1 °C.
VPRPGTAL displayed a thermal melting temperature of 59.1 °C.
Then KPNHTLVLL, with 59.2 °C; and KPRLETIEL, with 60.3 °C.
Then VPNVHGAL, with 57.4 °C.
Sequence AAYLRALSL came in with a thermal melting temperature of 62.3 °C.
SPTKAVPAL: the thermal melting temperature turned out to be 50.9 °C.
Then APRPGLLSL, with 64.4 °C.
With VPYHGEVPVSL the figure was 59.6 °C; with TPAAVRELVL, 60.8 °C; with HPAGPRTVF, 59.1 °C.
The sequence WPNARISVM had a thermal melting temperature of 64 °C.
Sequence AVRLITSSL came in with a thermal melting temperature of 61.7 °C.
With RPSGLHGDVSL the figure was 57.7 °C; with IIREPLTEL, 51 °C; with QPAPAWTTF, 62.1 °C.
Then TPSAGKAML, with 53.5 °C; and QPRDPSSTL, with 43.5 °C; and LPDLQRSKQAL, with 60.3 °C.
With SPDLVRVQL the figure was 60.7 °C; with HPFPGPGL, 56.2 °C.
For the sequence RPTDKPLRL, the thermal melting temperature is 57.9 °C.
As for KPMKSVLVV, the thermal melting temperature is 56.2 °C.
KPLSGLLNAL returned a thermal melting temperature of 61.6 °C.
With KPRPIIPML the figure was 60.7 °C; with RPASPSLQLL, 62.2 °C; with RPQKPSLEF, 61.8 °C.
For the sequence SPAPRTAL, the thermal melting temperature turned out to be 57.4 °C.
Then SPRSYQDFFE, with 46.4 °C; and YPGSDRIML, with 59.5 °C; and YPRFLSSPT, with 61 °C.
Then SPRMPVGDFF, with 59.9 °C.
With QPRGSQAWVL the figure was 57.2 °C; with LPNIHPEL, 59.1 °C.
Take IPRNPDGGPL: the thermal melting temperature was 54.7 °C.
With TPQSILRSTL the figure was 57.6 °C.
With APRDAYWIAM, the thermal melting temperature came to 63.5 °C.
Then HPFPGPGLAI, with 60.5 °C.
